{"source": "PubChem BioAssay AID2147", "about": "(National Center for Advancing Translational Sciences (NCATS), 2009)", "note": "Screen size: about 230,000 compounds; about 3,600 (1.6%) were called active. Inconclusive means that the source gave no clear call. Such entries were picked first, then a sample of the others. Calls follow the shape of the dose curve; as a rule, active = well fitted inhibition curve with a large enough effect (not every such curve was filed as active); inconclusive = small, poorly fitted or top-dose-only effect, or another doubt; inactive = no such curve, though single readings can be large or run the other way. Potencies of inconclusive entries are doubtful fits and often do not repeat. Also: nearly all actives have a fitted effect of over 50% in size. Potency is read from the fitted curve at half-maximal effect; tags tell the direction and shape of the fitted curve."}
{"molecular_target": "Lysine-specific demethylase 4E (Homo sapiens) (UniProt B2RXH2)", "sequence (B2RXH2 whole entry, looked up, the tested form may be a part)": "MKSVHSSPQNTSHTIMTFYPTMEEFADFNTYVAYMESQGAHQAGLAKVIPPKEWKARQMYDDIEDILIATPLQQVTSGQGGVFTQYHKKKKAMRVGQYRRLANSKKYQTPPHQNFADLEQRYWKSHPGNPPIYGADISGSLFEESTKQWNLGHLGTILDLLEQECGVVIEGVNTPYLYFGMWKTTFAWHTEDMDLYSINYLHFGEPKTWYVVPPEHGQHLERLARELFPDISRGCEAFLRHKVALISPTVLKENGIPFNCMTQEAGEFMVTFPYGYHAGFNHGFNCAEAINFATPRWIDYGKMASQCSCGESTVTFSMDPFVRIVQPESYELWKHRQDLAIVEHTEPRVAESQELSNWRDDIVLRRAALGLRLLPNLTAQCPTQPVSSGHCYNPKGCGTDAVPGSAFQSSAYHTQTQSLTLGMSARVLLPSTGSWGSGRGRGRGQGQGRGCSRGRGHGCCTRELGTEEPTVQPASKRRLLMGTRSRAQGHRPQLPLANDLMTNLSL", "assay": "qHTS Assay for Inhibitors of Human Jumonji Domain Containing 2E (JMJD2E)", "conditions": "JMJD2E catalytic domain, FDH-coupled NADH fluorescence (FDH is formaldehyde dehydrogenase); series mostly up to 57.1 µM"}
{"smiles": "O=C(N[C@@H](Cc1ccccc1)C(=O)O)c1ccccc1", "Potency": "inactive"}
{"smiles": "CCCCNc1nc(C)nc2c1nc(-c1ccccc1)n2CC1CCCN1CC", "note": "(configuration not stated)", "Potency": "inconclusive: 25.1 µM [inhibitor, partial curve]"}
{"smiles": "O=C1C=C(c2cccs2)CC(c2cccs2)C1n1cnc([N+](=O)[O-])c1", "note": "(configuration not stated)", "Potency": "inconclusive: 28.2 µM [inhibitor, single point]"}
{"smiles": "COc1ccc(Cl)cc1NC(=O)c1nc2nc(C)cc(C(F)F)n2n1", "Potency": "inactive"}
{"smiles": "COc1ccc(-c2nc3c4ccccc4[nH]c(=O)n3n2)cc1", "Potency": "inconclusive: 35.5 µM [inhibitor, single point]"}
{"smiles": "O=C(CNC(=O)C(c1ccccc1)c1ccccc1)N/N=C/c1ccc(O)cc1O", "Potency": "active: 20 µM"}
{"smiles": "CC(N)(Cc1ccc(O)c(O)c1)C(=O)O", "note": "(configuration not stated)", "Potency": "active: 3.55 µM"}
{"smiles": "CCCC1C(C#N)=C(N)Oc2cc(C)n(C)c(=O)c21", "note": "(configuration not stated)", "Potency": "inconclusive: 35.5 µM [inhibitor, partial curve]"}
{"smiles": "O=C(CN1CCCC1)N/N=C/c1ccc(-c2cccc(Cl)c2)o1", "Potency": "inconclusive: 28.2 µM [inhibitor, single point]"}
{"smiles": "CC(=O)NO", "Potency": "inconclusive: 31.6 µM [inhibitor, single point]"}
{"smiles": "CCn1cnc2cc(NCc3cccs3)ccc21", "Potency": "inconclusive: 35.5 µM [inhibitor, single point]"}
{"smiles": "O=C(Nc1ccc(Cl)cc1)c1cc2nc(-c3ccco3)cc(C(F)(F)F)n2n1", "Potency": "inconclusive: 4.47 µM [inhibitor, full curve]"}
{"smiles": "COc1ccccc1/C=C(\\C#N)C(=O)Nc1ccc(S(N)(=O)=O)cc1", "Potency": "inconclusive: 31.6 µM [inhibitor, single point]"}
{"smiles": "O=C1NC(c2ccccn2)Nc2sc3c(c21)CCC3", "note": "(configuration not stated)", "Potency": "inconclusive: 35.5 µM [inhibitor, single point]"}
{"smiles": "CCOC(=O)c1c(C)oc2c1c1c(c3ccccc32)OCN(Cc2cccnc2)C1", "Potency": "inconclusive: 3.55 µM [inhibitor, full curve]"}
{"smiles": "CCCCC1=CC2=CC(=O)C(C)(OC(=O)CCC(=O)OC)C(=O)C2=CO1", "note": "(configuration not stated)", "Potency": "inactive"}
{"smiles": "COc1cc(/C=N/n2c(-c3ccc4c(c3)NC(=O)CO4)csc2=Nc2cccc(C)c2)ccc1O", "Potency": "inactive"}
{"smiles": "Cc1ccc2cc(C#N)c(N3CCN(C)CC3)nc2c1", "Potency": "inconclusive: 31.6 µM [inhibitor, partial curve]"}
{"smiles": "COc1ccc(N2CSC3=C(C#N)C(c4cc(OC)ccc4OC)CC(=O)N3C2)c(OC)c1", "note": "(configuration not stated)", "Potency": "inactive"}
{"smiles": "Cc1nc2c(C(=O)NCCc3ccccc3)c[nH]n2c(=O)c1Cl", "Potency": "inactive"}
{"smiles": "Cc1ccc(C)c(S(=O)(=O)C(C#N)c2nc3ccccc3nc2N2CC(C)OC(C)C2)c1", "note": "(configuration not stated)", "Potency": "inconclusive: 11.2 µM [inhibitor, partial curve]"}
{"smiles": "COC(=O)c1cn(-c2ccccc2)c(=O)c2ccccc12", "Potency": "inconclusive: 39.8 µM [inhibitor, single point]"}
{"smiles": "CC(C)NC(=O)CC1Nc2c3ccccc3nc(=S)n2C1=O", "note": "(configuration not stated)", "Potency": "inactive"}
{"smiles": "O=C(c1ccccc1)c1cc(Cl)ccc1N1C(=O)C=CC1=O", "Potency": "inactive"}
{"smiles": "Cc1nc(-c2ccccc2)sc1-c1nnc(C2CC2)o1", "Potency": "inconclusive: 35.5 µM [inhibitor, partial curve]"}
{"smiles": "COC(=O)C(CCCCNC(=O)OCc1ccccc1)NC(=O)CN", "note": "(configuration not stated)", "Potency": "inactive"}
{"smiles": "COc1ccc(C=Nc2cccc3c(=O)[nH][nH]c(=O)c23)c2ccccc12", "Potency": "inconclusive: 3.55 µM [inhibitor, partial curve]"}
{"smiles": "O=c1cc(-c2cccnc2)oc2c1ccc1ccccc12", "Potency": "inconclusive: 28.2 µM [inhibitor, partial curve]"}
{"smiles": "COc1ccc(-c2c(O)c3c(OC)c4c(cc3oc2=O)OC(C)(C)C=C4)cc1", "Potency": "inconclusive: 25.1 µM [inhibitor, partial curve]"}
{"smiles": "CCCCCC1(C)NC(=S)N(c2ccccc2)N1", "note": "(configuration not stated)", "Potency": "inconclusive: 25.1 µM [inhibitor, single point]"}
{"smiles": "O=C(Nc1ccc(Br)cc1Cl)c1cnccn1", "Potency": "inactive"}
{"smiles": "O=S(=O)(Nc1nc2ccccc2nc1NCc1ccco1)c1cccs1", "Potency": "inconclusive: 28.2 µM [inhibitor, single point]"}
{"smiles": "CCCCN1C(=O)NC(NC(=O)c2ccco2)(C(F)(F)F)C1=O", "note": "(configuration not stated)", "Potency": "inconclusive: 39.8 µM [inhibitor, single point]"}
{"smiles": "O=C(/C=C/c1cccs1)NC(=S)NNC(=O)Cc1cccs1", "Potency": "inconclusive: 39.8 µM [inhibitor, single point]"}
{"smiles": "COC(=O)c1[nH]c2cc(OC)ccc2c1NC(=O)CCN1CCN(Cc2ccc3c(c2)OCO3)CC1", "Potency": "inconclusive: 39.8 µM [inhibitor, single point]"}
{"smiles": "CN(C)CCCNc1oc(-c2cccc(Cl)c2)nc1C#N", "Potency": "inconclusive: 22.4 µM [inhibitor, partial curve]"}
{"smiles": "COc1ccc(C)cc1NC(=O)c1cnc2scc(C)n2c1=O", "Potency": "inconclusive: 31.6 µM [inhibitor, single point]"}
{"smiles": "Cc1cnc(C(=O)Nc2ccc(-n3cnnn3)cc2)cn1", "Potency": "inconclusive: 35.5 µM [inhibitor, single point]"}
{"smiles": "O=C(COC(=O)c1cc(=O)c2ccccc2o1)Nc1ccc2ccccc2c1", "Potency": "inactive"}
{"smiles": "CCCCOC(=O)c1ccc(NC(=O)C(=O)NCc2ccco2)cc1", "Potency": "inconclusive: 39.8 µM [inhibitor, single point]"}
{"smiles": "COc1ccc(C(=O)NNC2=C(C(=O)C(F)(F)F)CCC2)cc1", "Potency": "inconclusive: 25.1 µM [inhibitor, single point]"}
{"smiles": "COc1ccc(-c2nnc3c4ccccc4c(C)nn23)cc1S(=O)(=O)N1CCN(CCO)CC1", "Potency": "inconclusive: 28.2 µM [inhibitor, single point]"}
{"smiles": "N#Cc1c(-c2ccccc2)ccn(Cc2ccc(Cl)cc2)c1=O", "Potency": "inconclusive: 35.5 µM [inhibitor, single point]"}
{"smiles": "CCCn1c(=O)c(-c2ccccc2)c(O)c2ccccc21", "Potency": "inconclusive: 25.1 µM [inhibitor, single point]"}
{"smiles": "C=CCc1c(O)c(CC)cc2c(C)cc(=O)oc12", "Potency": "inconclusive: 28.2 µM [inhibitor, partial curve]"}
{"smiles": "Cc1ccc(-n2c(N)c(S(=O)(=O)c3ccccc3)c3nc4ccccc4nc32)cc1", "Potency": "inconclusive: 7.94 µM [inhibitor, partial curve]"}
{"smiles": "CCOC(=O)CN1C(=O)N[C@@H](c2ccc(Br)cc2)C(C(=O)OC)=C1C", "Potency": "inactive"}
{"smiles": "CCn1c(SCCN2CCCCC2)nnc1-c1ccc(S(=O)(=O)N2CCOCC2)cc1", "Potency": "inconclusive: 35.5 µM [inhibitor, single point]"}
{"smiles": "CCC(C)c1ccc2oc(-c3ccc(NC(=O)c4ncn[nH]4)cc3)nc2c1", "note": "(configuration not stated)", "Potency": "inconclusive: 3.16 µM [inhibitor, partial curve]"}
{"smiles": "CCCC[C@H](CN(N=O)[C@@H](Cc1ccccc1)CN(C)N=O)N(CCc1ccccc1)N=O", "Potency": "inactive"}
{"smiles": "Cc1cc(C)n(-c2ccc(C(C)C)cc2)c(=O)c1C#N", "Potency": "inconclusive: 35.5 µM [inhibitor, partial curve]"}
{"smiles": "COc1cc(OC)cc(C(=O)OCn2nnc3ccccc3c2=O)c1", "Potency": "inactive"}
{"smiles": "Cc1ccc(C(=O)CC(Nc2ccc(F)cc2)c2ccccc2)cc1", "note": "(configuration not stated)", "Potency": "inactive"}
{"smiles": "O=C(N/N=C/c1ccccn1)c1ccc2nc[nH]c2c1", "Potency": "inconclusive: 39.8 µM [inhibitor, single point]"}
{"smiles": "O=C(CSc1nc(-c2ccccc2)cs1)Nc1nccs1", "Potency": "inactive"}
{"smiles": "N#Cc1c(-c2ccco2)ccn(Cc2cccc(F)c2)c1=O", "Potency": "inconclusive: 0.708 µM [inhibitor, full curve]"}
{"smiles": "COC(=O)c1ccc(NC(=O)CSc2ccccn2)cc1", "Potency": "inactive"}
{"smiles": "CCc1ccc(-c2cc(C(=O)Nc3c(C)n(C)n(-c4ccccc4)c3=O)c3ccccc3n2)s1", "Potency": "inconclusive: 39.8 µM [inhibitor, single point]"}
{"smiles": "CC(C)NCCCOc1ccc(C(C)(C)c2ccccc2)cc1", "Potency": "inconclusive: 39.8 µM [inhibitor, single point]"}
{"smiles": "Nc1c2c(nc3sc4c(c13)CCCC4)-c1ccccc1CC2", "Potency": "inconclusive: 28.2 µM [inhibitor, partial curve]"}
{"smiles": "CC1(C(=O)N(CC(=O)NC2CCCC2)Cc2ccco2)CC(=O)N=C2C=CC=CN21", "note": "(configuration not stated)", "Potency": "inconclusive: 31.6 µM [inhibitor, partial curve]"}
{"smiles": "Cc1ccc(C(=O)Nc2nc(C)c(C(=O)Nc3ccc4c(c3)CCC4)s2)cc1", "Potency": "inconclusive: 35.5 µM [inhibitor, single point]"}
{"smiles": "O=c1c(-c2ccc(Cl)cc2)[n+]([O-])c2ccccc2n1O", "Potency": "inactive"}
{"smiles": "Cc1ccc(NC(=O)c2cc(-c3ccc(C)o3)nc3ccccc23)cc1", "Potency": "inactive"}
{"smiles": "Cc1nc2nc(N)nn2c(C)c1C/C=C/c1ccccc1", "Potency": "inconclusive: 28.2 µM [inhibitor, single point]"}
{"smiles": "Cc1ccc(C(=O)N2CCN(c3ccc(C(F)(F)F)cn3)CC2)c(C)c1", "Potency": "inconclusive: 25.1 µM [inhibitor, single point]"}
{"smiles": "O=C1OC(/C=C/c2ccccc2)=NC/1=C/C=C/c1ccccc1", "Potency": "inactive"}
{"smiles": "CCC(CC)NC(=O)CON=C1c2ccccc2-c2ccccc21", "Potency": "inconclusive: 39.8 µM [inhibitor, single point]"}
{"smiles": "O=c1[nH]c2ccc(Cl)cc2c(-c2ccccc2)c1CN1CCOCC1", "Potency": "inconclusive: 39.8 µM [inhibitor, single point]"}
{"smiles": "COC(=O)N/N=C\\c1ccc(-c2cc(Cl)c(Cl)cc2Cl)o1", "Potency": "inconclusive: 22.4 µM [inhibitor, partial curve]"}
{"smiles": "OCCN(Cc1ccccc1)CC1CCCCC1", "Potency": "inconclusive: 39.8 µM [inhibitor, single point]"}
{"smiles": "COc1cccc2cc(C(=O)NCc3ccccn3)c(=O)oc12", "Potency": "inconclusive: 35.5 µM [inhibitor, single point]"}
